# Among all 52,000 compounds or so, about 1,700 (3.3%) were called active. Rule as the data show it: active = survival mostly below about 52% (no sharp cut-off); inactive = mostly above about 56%. This is one part of the list.
# System: Wild type
# Experiment: growth inhibition of S. aureus wild type versus tarO mutant, primary screen, teichoic acid synthesis inhibitors, RN4220, OD600 (AID 463173)
# Details: S. aureus RN4220 wild type/DeltatarO growth, OD600, 18 h, stronger effect = lower value, screened at 18.75 µg/mL (by protocol)
row,Structure (SMILES),survival
1,O=C(NC1CC(=O)N(c2cccc(F)c2)C1)c1ccc(S(=O)(=O)N2CCCCC2)cc1 (stereo not given),inactive: 77%
2,COc1ccc(C(=O)Nc2cc(-c3nc4ncccc4o3)ccc2C)cc1Br,inactive: 75%
3,Cc1ccc(OCC(=O)Nc2nnc(SCc3cc(=O)n4cc(C)ccc4n3)s2)cc1,active: 1%
4,Cc1noc(-c2ccc(N(C)Cc3ccccc3)c([N+](=O)[O-])c2)n1,inactive: 79%
5,COC(=O)c1ccccc1NC(=O)CCn1c(=O)c2cccn2c2cccnc21,inactive: 88%
6,CC(=O)Nc1ccc(C)cc1-c1nc2ccccc2n(Cc2cccc(Br)c2)c1=O,inactive: 84%
7,COc1ccc(OCc2nc(-c3ccc(OC)c(OC)c3)no2)cc1,inactive: 70%
8,CC(=O)Nc1c(C)nn(-c2ccccc2)c1N1CCC(C(=O)Nc2ccc(C)cc2Cl)CC1,inactive: 71%
9,COc1cccc(-n2ccnc2SCC(=O)Nc2nc3ccc(C)cc3s2)c1,inactive: 136%
10,CCc1ccc(NS(=O)(=O)c2cc(Br)cc3c2N(C(C)=O)CC3)cc1,inactive: 102%
11,CC(=O)Nc1ccc(NC(=O)c2ccc3c(c2)CCN3S(=O)(=O)c2ccc(Cl)cc2)cc1,inactive: 115%
12,COc1ccc(CCNc2oc(/C=C/c3ccc(OC)c(OC)c3)nc2C#N)cc1,inactive: 105%
13,CCCc1nc2nc(C)c(NS(=O)(=O)c3ccc(C)c(C)c3)c(=O)n2[nH]1,inactive: 122%
14,CCOC(=O)C1CCCN(C(=O)c2ccc(C)c(NC(=O)c3nsc4ccccc34)c2)C1 (stereo not given),inactive: 123%
15,COc1cccc(NC(=O)CSc2nnc3[nH]c(=O)cc(-c4ccccc4)n23)c1,inactive: 153%
16,Cc1ccc2oc(-c3cc(NC(=O)Cc4ccccc4)ccc3Cl)nc2c1,inactive: 70%
17,c1ccc(Cn2nnnc2C(c2cccnc2)N2CCN(c3ccccc3)CC2)cc1 (stereo not given),inactive: 113%
18,CCCCOc1ccc(C(=O)NCCS(=O)(=O)N2CCN(c3ccccc3OC)CC2)cc1,inactive: 69%
19,CN(C)c1ccc(C(CNC(=O)c2ccccc2Cl)N2CCc3ccccc32)cc1 (stereo not given),inactive: 32%
20,Cc1ccc(NC(=O)Nc2nc3c(s2)CCCCCC3)cc1C,inactive: 69%
21,O=C(COc1ccc(Cl)cc1)Nc1ccc(O)c(-c2nc3ccccc3s2)c1,inactive: 69%
22,Cc1ccc(Cn2c(C(=O)O)c(CNCCc3cccs3)c3ccc(C)cc32)cc1,inactive: 85%
23,O=C(NC1CC(=O)N(c2ccc(F)cc2)C1)c1ccc(S(=O)(=O)N2CCCC2)cc1 (stereo not given),inactive: 66%

row,Structure (SMILES),survival
1,CCN(C(=O)CSc1nc2ccccc2nc1Cc1cccc(OC)c1)c1cccc(C)c1,active: -2%
2,COc1ccccc1NC(=O)c1ccc2[nH]c(C)cc(=O)c2c1,inactive: 87%
3,Cc1cc(Br)ccc1NC(=O)COc1cc(=O)n(C)c2ccccc12,inactive: 119%
4,Cc1ccccc1NC(=O)c1c(C)oc2ccc(O)c(CN3CCCC(C)C3)c12 (stereo not given),inactive: 115%
5,COc1cccc(CNC(=O)CSc2nc3ccccc3nc2Cc2ccccc2)c1,inactive: 66%
6,O=c1c2sc3ccccc3c2n(Cc2ccccc2F)c(=O)n1-c1ccccc1Cl,inactive: 81%
7,CCN(CC)S(=O)(=O)c1ccc2nc(NC(=O)c3ccccc3OC)sc2c1,inactive: 113%
8,Cc1nnc(N2CCC(C(=O)NCc3ccc(F)cc3)CC2)c2nn(-c3ccc(Cl)cc3)c(C)c12,inactive: 126%
9,COc1cc2c(cc1OC)C(c1ccc(F)cc1)N(c1ccccc1)C(=O)C2 (stereo not given),inactive: 92%
10,Cc1ccc2c(c1)cc(C(=O)NCc1ccc(F)cc1)n2C,inactive: 96%
11,NCC(O)CNCCc1ccccc1 (stereo not given),inactive: 107%
12,CCOCC(=O)Nc1ccc(-c2cn3c(C)csc3n2)cc1,inactive: 134%
13,Cc1ccc2[nH]c(=O)c(-c3nc4c(C)cccn4c3NCc3ccco3)cc2c1,inactive: 96%
14,COc1ccccc1N1CCN(c2ccc(=O)n(CC(=O)O)n2)CC1,inactive: 77%
15,COc1cccc(CNc2ncnc3c2nnn3C)c1,inactive: 79%
16,CNC(=O)C1CCC(Cn2c(=O)c3sccc3n(CC(=O)N3CCCC3)c2=O)CC1 (stereo not given),inactive: 77%
17,COc1cccc(-c2csc(N3CCN(C(=S)NCc4ccco4)CC3)n2)c1,inactive: 108%
18,COc1ccccc1NC(=O)C1=C(C)NC(=S)NC1C (stereo not given),inactive: 108%
19,CCN(C(=O)CSc1nc(-c2ccccc2)no1)c1cccc(C)c1,active: -2%
20,Cc1cccc2cc(CN(C(=O)c3cccc(Cl)c3)c3ccccc3)c(=O)[nH]c12,inactive: 94%
21,COc1cccc(C2CC(=O)Nc3c2c(=O)[nH]c2ncnn32)c1OC (stereo not given),inactive: 74%
22,COc1ccccc1Nc1nn2c(=O)c3ccc(C(=O)NC4CCC(C)CC4)cc3nc2s1 (stereo not given),inactive: 127%
23,O=C(C1CCN(S(=O)(=O)c2ccc(Br)s2)CC1)N1CCN(c2ccc(F)cc2)CC1,inactive: 72%

row,Structure (SMILES),survival
1,COc1ccccc1C(=O)Nc1cccc(OCc2cc(=O)n3c4c(sc3n2)CCCC4)c1,inactive: 70%
2,CCOc1ccc(C2C(C(N)=O)=C(C)Nc3nc(-c4ccc(OC)cc4)nn32)cc1 (stereo not given),inactive: 76%
3,CC(C)c1ccc(S(=O)(=O)c2nnn3c2nc(NCc2cccs2)c2sccc23)cc1,inactive: 76%
4,O=C(NCC(c1ccc2c(c1)OCO2)N1CCN(c2ccccc2)CC1)C(=O)Nc1ccccc1 (stereo not given),inactive: 71%
5,Cc1cc2ccccc2n1CCNC(=O)c1ccccc1F,inactive: 81%
6,O=c1c2sc3ccccc3c2n(Cc2ccc(F)cc2)c(=O)n1Cc1ccco1,inactive: 86%
7,O=C(OCc1cc(=O)n2nc(C3CC3)sc2n1)c1ccc(NC(=O)c2ccccc2Cl)cc1,inactive: 99%
8,COc1ccc(C(=O)Nc2ccccc2)cc1S(=O)(=O)Nc1ccc(Br)cc1,inactive: 83%
9,CCc1ccc2oc(C(=O)Nc3cc(Cl)ccc3OC)cc(=O)c2c1,inactive: 80%
10,COc1ccc(-c2nnn(CC(=O)N(Cc3ccccc3)C(C)C(=O)NC3CCCC3)n2)cc1OC (stereo not given),inactive: 103%
11,Cc1c(C(=O)Nc2ccccc2)sc2nc(-c3cc4ccccc4oc3=O)[nH]c(=O)c12,inactive: 95%
12,O=C(C1CCCN(S(=O)(=O)c2ccc(Cl)cc2)C1)N1CCCC1 (stereo not given),inactive: 105%
13,O=C(Nc1cccc(C(=O)N2CCN(c3ccccc3)CC2)c1)c1nsc2ccccc12,inactive: 68%
14,CCc1ccc(C2=C(C)C(N3CCC(C(=O)Nc4ccc(F)cc4)CC3)=NS2(=O)=O)cc1,inactive: 59%
15,O=C(Nc1ccc2nc(SCC(=O)N3CCCc4ccccc43)sc2c1)c1ccccc1F,inactive: 83%
16,C=CCc1c(C)nc(-c2ccccc2)nc1NN,inactive: 118%
17,Fc1ccc(Nc2nc(-c3cccc(Cl)c3)c3c(n2)-c2ccccc2OC3)cc1,inactive: 100%
18,Cc1ccc(NC(=O)CCn2nc(-c3ccccc3)c3ccccc3c2=O)c(C)c1,inactive: 75%
19,CC(C)n1c(SCC(=O)N2CCc3ccccc32)nc2c1c(=O)n(C)c(=O)n2C,inactive: 106%
20,COc1ccc2c(c1)c1c(c(=O)n(-c3ccc(OC)c(OC)c3)c(=O)n1Cc1ccc(C)cc1)n2C,inactive: 73%
21,COc1ccc(C2CC(=O)c3cnc4c(-c5ccccc5)c(C)nn4c3C2)c(OC)c1 (stereo not given),inactive: 71%
22,CCCCNC(=O)CCCn1c(=O)c2ccccc2n(Cc2ccc(Cl)cc2)c1=O,inactive: 147%
23,Cc1[nH]c2ccccc2c1/C=C(\C#N)C(=O)NCc1ccco1,inactive: 120%

row,Structure (SMILES),survival
1,CC(C)(C)OC(=O)N1CCC(c2c(C(=O)N3CCOCC3)cnn2-c2ccccc2Cl)CC1,inactive: 77%
2,COc1ccccc1CNC(=O)CCCn1c(=O)c2cccn2c2ccccc21,inactive: 95%
3,Cc1cc2c(cc1C)-n1c(-c3ccccc3)c3c(=O)n(C)c(=O)n(C)c3c1C(c1ccco1)N2 (stereo not given),inactive: 88%
4,COc1ccc(-c2nc(SCC(=O)Nc3cccc(C(C)=O)c3)n[nH]2)cc1,inactive: 133%
5,CCc1c(C)nc2nncn2c1Nc1cccc(C)c1,inactive: 91%
6,N#Cc1ccccc1S(=O)(=O)N1CCC(Oc2ccc(-n3cnnn3)cc2)CC1,inactive: 83%
7,O=C(Cc1ccccc1)Nc1cc(-c2nc3cc(Cl)ccc3o2)ccc1Cl,inactive: 79%
8,COc1cccc(/C=C2/SC(=O)N(C)C2=O)c1O,inactive: 109%
9,COc1ccc(Cc2nc3ccc(C(=O)NCc4cc(Br)ccc4OC)cc3o2)cc1,inactive: 92%
10,Fc1ccc(-c2noc3ncnc(N4CCCCC4)c23)cc1,inactive: 135%
11,Cc1ccc(C)c(NC(=O)Cn2nnc(C(=O)NCc3ccco3)c2N)c1,inactive: 99%
12,CNC(=O)C1CCN(C(=O)N2CC(C)Oc3ccc(C)cc32)CC1 (stereo not given),inactive: 86%
13,O=C(CN1CCN(c2cccc(Cl)c2)CC1)Nc1nccs1,inactive: 104%
14,O=S(=O)(Nc1ccc(O)cc1)c1cccs1,inactive: 101%
15,COc1ccc(CCC(=O)NCc2nc3cccnc3n2Cc2ccc(OC)cc2)cc1,inactive: 90%
16,CCOC(=O)c1c(NC(=O)CS(=O)(=O)c2ccc(Cl)cc2)sc2c1CCCC2,inactive: 98%
17,Cc1ccccc1CNC(=O)C1CCCN(c2nnc(-n3c(C)ccc3C)s2)C1 (stereo not given),inactive: 85%
18,COc1ccccc1N(C)C(=O)Cn1c(=O)oc2cc(S(=O)(=O)N3CCCC3)ccc21,inactive: 127%
19,CCOC(=O)c1c(NC(=O)c2cc(=O)c3c(C)cc(C)cc3o2)sc2c1CCC2,inactive: 83%
20,COc1ccc(-c2cc(C(=O)OCC(=O)c3cccc(OC)c3)c3cccc(Cl)c3n2)cc1,inactive: 67%
21,COc1ccc(NC(=O)C2CCN(c3nc(-c4ccc(OC)c(OC)c4)no3)CC2)cc1Cl,inactive: 85%
